{"source": "PubChem BioAssay AID624296", "about": "(National Center for Advancing Translational Sciences (NCATS), 2012)", "note": "Out of some 350,000 compounds screened, about 9,900 (2.8%) were called active. This list was built around the results that the source calls inconclusive (neither active nor inactive); the mix of calls is not that of the screen. Calls come from the whole dose curve; as a rule, active = well fitted activation curve with a large enough effect; inconclusive = small, poorly fitted or top-dose-only effect; inactive = no such curve, though single readings can be large or run the other way. No potency is given beside an inconclusive call; the fits are too rough.", "data": [{"assay": "A quantitative high throughput screen for small molecules that induce DNA re-replication in MCF 10a normal breast cells; note: nearly all actives have a fitted effect of over 50% in size; note: potency is the fitted concentration of half-maximal effect; tags give direction and shape of the fitted curve; for activity, positive = re-replication: % of control where 0% means no effect.", "settings": "MCF 10A DNA re-replication, Hoechst nuclear intensity, 48 h; activity, positive = re-replication: at 46.1 µM (top of the series)", "values": [{"molecule": "CC(CC1C(C#N)=C(N)OC2=C1C(=O)CCC2)c1ccccc1", "note": "(stereo not drawn)", "Potency": "inconclusive [activator, partial curve, poor fit]"}, {"molecule": "CCO[C@@H]1OC(C(=O)N2CCN(Cc3ccccc3)CC2)=C[C@H](c2ccc(Br)cc2)[C@H]1CCCO", "Potency": "inconclusive [activator, single point]"}, {"molecule": "COc1ccc(-n2cnc3sc(-c4ccccc4)cc3c2=O)cc1", "activity, positive = re-replication": "inactive: -7.2%"}, {"molecule": "COc1cccc(NC(=O)COc2ncnc3sc(C)c(C)c23)c1", "activity, positive = re-replication": "inactive: -4.09%"}, {"molecule": "CN(C(=O)c1ccc(NC(=O)Cc2cccc(NC(=O)C3CCCN(C(=O)C4CCC4)C3)c2)cc1)C1CCCC1", "note": "(stereo not drawn)", "Potency": "inconclusive [activator, partial curve, poor fit]"}, {"molecule": "CCN(CC)C(=O)COc1cc(C)cc2oc(=O)cc(-c3ccccc3)c12", "Potency": "inconclusive [activator, partial curve, poor fit]"}, {"molecule": "Cn1nc(C(F)(F)F)c(C(=O)Nc2cccc(C(F)(F)F)c2)c1SCc1ccc(Cl)cc1", "Potency": "inconclusive [activator, single point]"}, {"molecule": "Cn1c(SCc2ccc(F)cc2Cl)nc2ccccc2c1=O", "Potency": "inconclusive [activator, single point]"}, {"molecule": "CCn1cnc2cc([N+](=O)[O-])ccc21", "Potency": "inconclusive [activator, single point]"}, {"molecule": "CCOC(=O)c1ccc(N2C=C(C(=O)OC)C(c3ccc(OC)c(O)c3)C(C(=O)OC)=C2)cc1", "activity, positive = re-replication": "inactive: 11%"}, {"molecule": "Cc1cc(N(C)N)nc(NC(=O)NS(=O)(=O)c2ccccc2Cl)n1", "activity, positive = re-replication": "inactive: 0.477%"}, {"molecule": "Cc1sc(NC(=O)C2CSC3(C)CCC(=O)N23)nc1-c1ccccc1", "note": "(stereo not drawn)", "Potency": "inconclusive [activator, single point]"}, {"molecule": "CC(C)CC(=NNC(=O)c1ccncc1)c1cc(Cl)ccc1O", "Potency": "inconclusive [activator, full curve]"}, {"molecule": "COC(=O)N/N=C/c1cccc(OCCSc2ccc(Cl)cc2)c1", "Potency": "inconclusive [activator, single point]"}, {"molecule": "COC(=O)CCC(=O)OC", "Potency": "inconclusive [activator, full curve, poor fit]"}, {"molecule": "COc1ccc(C2CC(c3ccc(Cl)cc3)=NN2C(=O)c2cccc([N+](=O)[O-])c2)cc1", "note": "(stereo not drawn)", "activity, positive = re-replication": "inactive: -4.49%"}, {"molecule": "CCN(CC)C(=O)c1[nH]cnc1C(=O)Nc1ccon1", "Potency": "inconclusive [activator, single point]"}, {"molecule": "CC1(c2ccc3ccccc3c2)NC(=O)N(CC(=O)N2CCC(C(N)=O)CC2)C1=O", "note": "(stereo not drawn)", "activity, positive = re-replication": "inactive: -16.4%"}, {"molecule": "O=C(NCc1ccc(Cl)cc1)c1ccccc1Oc1ccccc1", "Potency": "inconclusive [activator, partial curve, poor fit]"}, {"molecule": "CCOC(=O)N1CCN(C(=O)CCl)CC1", "Potency": "inconclusive [activator, partial curve, poor fit]"}, {"molecule": "Cc1ccnc(NC(=S)NC(=O)/C=C/c2ccco2)c1", "Potency": "inconclusive [activator, single point]"}, {"molecule": "CN(CC(=O)Nc1ccccc1Cl)C(=O)CSc1nnc(N)s1", "activity, positive = re-replication": "inactive: 0.416%"}, {"molecule": "CCC1(CC)SCCNC1=O", "activity, positive = re-replication": "inactive: 4.21%"}, {"molecule": "Cc1ccc(-c2cn3cccnc3n2)cc1NC(=O)c1ccc(Br)o1", "activity, positive = re-replication": "inactive: -0.784%"}, {"molecule": "O=C(CSc1ncnc2nc[nH]c12)c1ccccc1", "Potency": "inconclusive [activator, full curve, poor fit]"}, {"molecule": "Cc1ccc(S(=O)(=O)NCc2ccc(C(=O)NC3CCC(C)CC3)cc2)cc1", "note": "(stereo not drawn)", "Potency": "inconclusive [activator, single point]"}, {"molecule": "COc1ccc(C2CC(c3cccs3)=NN2C(=O)CSc2nc3ccccc3s2)cc1", "note": "(stereo not drawn)", "activity, positive = re-replication": "inactive: 33.1%"}, {"molecule": "CS(=O)(=O)N(Cc1ccc(Cl)cc1)c1ccc(C(=O)NCCSCc2ccco2)cc1", "Potency": "inconclusive [activator, partial curve, poor fit]"}, {"molecule": "COc1cccc(NC(=O)CSc2nc(C3CC3)nc3ccccc23)c1", "Potency": "inconclusive [activator, single point]"}, {"molecule": "Cc1ccc(N(CC(=O)NCCc2ccc(F)cc2)S(=O)(=O)c2ccc(Cl)c([N+](=O)[O-])c2)c(C)c1", "Potency": "inconclusive [activator, full curve, poor fit]"}, {"molecule": "CCC(C)(C)n1nnnc1C(c1cccnc1)N1CCN(c2cccc(C(F)(F)F)c2)CC1", "note": "(stereo not drawn)", "Potency": "inconclusive [activator, partial curve, poor fit]"}, {"molecule": "COc1ccc(CN2C(=O)c3cccnc3C2Nc2cc(Cl)ccc2OC)cc1", "note": "(stereo not drawn)", "Potency": "inconclusive [activator, partial curve, poor fit]"}, {"molecule": "CN1CCCC1=Nc1c2c(nc3ccccc13)N(C)CC2", "activity, positive = re-replication": "inactive: 10.5%"}, {"molecule": "CC1CCN(C(c2cc3cc4c(cc3[nH]c2=O)OCO4)c2nnnn2CC2CCCO2)CC1", "note": "(stereo not drawn)", "Potency": "inconclusive [activator, partial curve, poor fit]"}, {"molecule": "CCOC(=O)/C=c1\\s/c(=C\\c2ccc(C(F)(F)F)cc2)c(=O)n1CC(=O)NCc1ccco1", "Potency": "active: 23.1 µM"}, {"molecule": "O=C(CSc1nc(O)c(Cc2ccccc2)c(=O)[nH]1)N1CCOCC1", "activity, positive = re-replication": "inactive: -2.31%"}, {"molecule": "COc1cc(/C=N/NC(=O)c2cc(-c3ccccc3Cl)nc3ccccc23)cc(OC)c1O", "Potency": "inconclusive [activator, single point]"}, {"molecule": "O=C(c1cc(-c2ccncc2)nc2ccc(Br)cc12)N1CCN(Cc2ccc3c(c2)OCO3)CC1", "Potency": "inconclusive [activator, partial curve]"}, {"molecule": "COc1cccc2oc3ccc(C#CC4(N)CCCCC4)cc3c(=O)c12", "Potency": "inconclusive [activator, partial curve]"}, {"molecule": "CCCC1(C2CCCC2)NC(=O)NC1=O", "note": "(stereo not drawn)", "activity, positive = re-replication": "inactive: 0.109%"}, {"molecule": "CCN(Cc1nc2ccccc2c(=O)[nH]1)C(=O)c1cc2c(s1)CCCCC2", "Potency": "inconclusive [activator, full curve, poor fit]"}, {"molecule": "O=C(Cn1c(C2CC2)nc2ccccc2c1=O)Nc1ccc(Br)cc1", "Potency": "inconclusive [activator, single point]"}, {"molecule": "O=C(NC1CCCCC1)c1ccc2snnc2c1", "activity, positive = re-replication": "inactive: -8.66%"}]}]}
